{"source": "paper PMC12040169", "about": "(PLOS Biology, 2025)", "note": "The other results are listed elsewhere or left out.", "data": [{"test_system": "T1, C. trachomatis L2/434/Bu expressing GFP (CTL2-GFP)", "T1 construct": "L2/434/Bu GFP intracellular growth in HeLa cells", "parameters": "species or system HeLa; C. trachomatis total inclusion area by high-content imaging, normalised to DMSO", "settings": "total inclusion area; 28.5 h, 10 µM; inhibitor", "summary_of_the_method": "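Host cell viability was gauged from Hoechst-stained nuclei counts, while chlamydial growth was taken from total inclusion area and inclusion number per well. Cells were fixed and imaged by high-content microscopy once bulk GFP and resorufin fluorescence had been measured.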", "values": [{"smiles": "Clc1ccc(-c2c[nH]cn2)cc1", "note": "[CBK027542]", "% of control remaining": 93.6318}, {"smiles": "COc1cc([C@@H]2c3cc4c(cc3[C@H](O)[C@H]2C(=O)Nc2ccccc2)OCO4)cc(OC)c1OC", "note": "[CBK200106]", "% of control remaining": 73.3494}, {"smiles": "Cc1cc2nc(SCc3nc4ccccc4[nH]3)[nH]c2cc1C", "note": "[CBK264233]", "% of control remaining": 107.069}, {"smiles": "CC(=O)Oc1ccccc1C(=O)Oc1ccc2c(c1)c(C(C)=O)c(C)n2-c1ccccc1", "note": "[CBK263175]", "% of control remaining": 61.6074}, {"smiles": "Nc1cc(=O)[nH]c(SCC(=O)N2CCc3ccccc32)n1", "note": "[CBK307424]", "% of control remaining": 101.879}, {"smiles": "Cc1cc(COc2nccnc2OC2CCN(CC(=O)Nc3c(C)cccc3C)CC2)no1", "note": "[CBK082958T]", "% of control remaining": 75.6028}, {"smiles": "CC(C)(CNC(=O)c1ccc(=O)n(CC(=O)NC2CCCCC2)c1)c1ccc(F)cc1", "note": "[CBK285984]", "% of control remaining": 98.268}, {"smiles": "CCn1cc(S(=O)(=O)NC2(c3ccc(F)cc3)CC2)c(C)n1", "note": "[CBK282837]", "% of control remaining": 86.3727}, {"smiles": "Cc1cccc(CNc2nccnc2-c2cccc(Cl)c2)c1", "note": "[CBK037527]", "% of control remaining": 114.593}, {"smiles": "O=C(Nc1ccc([C@@H](O)[C@H]2COCC(=O)N2Cc2ccc(F)cc2)cc1)c1cccnc1", "note": "[CBK289062]", "% of control remaining": 118.682}, {"smiles": "COc1cc(F)cc(OC2CCNCC2)c1NC(=O)c1c(-c2ccccc2)noc1C", "note": "[CBK050350T]", "% of control remaining": 86.0264}, {"smiles": "CN(c1ncccc1CNC(=O)c1c[nH]c(=O)c(Cl)c1)C1CCCCC1", "note": "[CBK307267]", "% of control remaining": 72.97}, {"smiles": "CCCCCCC1N=NC(c2ccc(F)cc2)=CN1O", "note": "(stereo not drawn) [CBK019298]", "% of control remaining": 67.8299}, {"smiles": "O=S(=O)(c1ccc(C(F)(F)F)cc1Cl)N1CCCN(Cc2ccnc3ccccc23)CC1", "note": "[CBK062942]", "% of control remaining": 98.5141}, {"smiles": "COc1ccc(NC(=O)N2CCCCC2c2cccnc2)cc1", "note": "(stereo not drawn) [CBK293947]", "% of control remaining": 105.571}, {"smiles": "COC(=O)c1cc(NC(=O)c2cc(-c3ccc(C)o3)nc3ccccc23)cc(C(=O)OC)c1", "note": "[CBK265400]", "% of control remaining": 107.142}, {"smiles": "O=C(c1[nH]nc2c1CCCC2)N1CCn2cc(C(F)(F)F)nc2C1", "note": "[CBK283915]", "% of control remaining": 86.2332}, {"smiles": "CCC(C)NC(=O)CN1CCN(Cn2nnc3ccccc3c2=O)CC1", "note": "(stereo not drawn) [CBK305032]", "% of control remaining": 84.2331}, {"smiles": "CN1CCC[C@H]1C(=O)Nc1cc(-c2ccncc2)c[nH]c1=O", "note": "[CBK116587]", "% of control remaining": 86.9127}, {"smiles": "CSCC(=O)N1CC[C@H](NC(=O)NC2CCCCC2)[C@H]1C(=O)N1CCC[C@@H]1C(N)=O", "note": "[CBK289265]", "% of control remaining": 98.6595}, {"smiles": "Cc1cc(S(=O)(=O)N2CCN(CCO)C(C)C2)sc1Cl", "note": "(stereo not drawn) [CBK304074]", "% of control remaining": 30.8479}, {"smiles": "O=C(O)c1cccc(OCCNS(=O)(=O)c2ccc(N3CCCC3=O)cc2)c1", "note": "[CBK299779]", "% of control remaining": 93.2101}, {"smiles": "CC(C)n1c(=O)n(CC(=O)NCCc2ccccc2)c2cccnc21", "note": "[CBK283701]", "% of control remaining": 94.1324}, {"smiles": "Nn1c(SCc2ccc(C(=O)O)cc2)nnc1-c1ccccn1", "note": "[CBK267553]", "% of control remaining": 90.7444}, {"smiles": "COc1ccccc1-c1cccc(C2CCCN(C(=O)Cc3c[nH]c4ccccc34)C2)n1", "note": "(stereo not drawn) [CBK286143]", "% of control remaining": 90.1698}, {"smiles": "CCOc1ccc(C(=O)NC(=S)Nc2cccc(C(=O)O)c2C)cc1Br", "note": "[CBK265100]", "% of control remaining": 67.9274}, {"smiles": "CCN(CC)CCN1CCN(c2cncc(-c3cccs3)n2)CC1", "note": "[CBK065703]", "% of control remaining": 99.6057}, {"smiles": "O=S(=O)(N1CCOCC1)N1CCN(CC(O)COc2ccc(-c3ccccc3)cc2)CC1", "note": "(stereo not drawn) [CBK269301]", "% of control remaining": 105.617}, {"smiles": "CC1CCc2n[nH]c(C(=O)NCCCc3ccco3)c2C1", "note": "(stereo not drawn) [CBK283153]", "% of control remaining": 99.6778}, {"smiles": "CC(C)(C)OC(=O)C1(NC(=O)Cc2cn3ccccc3n2)CCCC1", "note": "[CBK305500]", "% of control remaining": 109.085}, {"smiles": "CC(C)(C)OC(=O)N1CCN(S(=O)(=O)c2ccc(Br)cc2)CC1", "note": "[CBK143623]", "% of control remaining": 80.6152}, {"smiles": "O=C(C[C@@H]1CCNC[C@@H]1Cc1cc(-c2ccccc2)on1)N1CCN(c2ccccc2)CC1", "note": "[CBK289148]", "% of control remaining": 96.1938}, {"smiles": "COc1ccc(CC(=O)NCC(=O)N2CCC3(CC2)NCCc2nc[nH]c23)cc1", "note": "[CBK287997]", "% of control remaining": 85.9507}, {"smiles": "O=C(O)CC1S/C(=N/N=C/c2ccc(-c3ccc(Cl)cc3)o2)NC1=O", "note": "(stereo not drawn) [CBK264595]", "% of control remaining": 88.8931}, {"smiles": "CC1CC1C(=O)NCCc1c[nH]c2cccc(C3(O)CCOCC3)c12", "note": "(stereo not drawn) [CBK284840]", "% of control remaining": 102.386}, {"smiles": "CCCc1nc(SC)ncc1C(=O)NCc1ccccn1", "note": "[CBK291190]", "% of control remaining": 108.591}, {"smiles": "COCOc1ccc(-c2nc(-c3ccco3)cnc2N)cc1", "note": "[CBK064108]", "% of control remaining": 79.6298}, {"smiles": "CCOC(=O)c1cnc(SCC(=O)N2CCN(c3ccccc3)CC2)nc1N", "note": "[CBK269159]", "% of control remaining": 92.8795}, {"smiles": "COc1ccc(OCC(=O)Nc2ccc3oc(-c4ccc(OC)c(Br)c4)nc3c2)cc1", "note": "[CBK263913]", "% of control remaining": 13.5919}]}]}
